Patent publication US9968579B2, “ATRA for modulating Pin1 activity and stability” (Beth Israel Deaconess Medical Center, Inc., priority 2014, dated 2018)

What was measured:
[1] = system: PML-RARα and Pin1 in NB4 cells; experiment: PML-RARα and Pin1 protein levels in NB4 cells; format: cell-based, human
FKBP12 = FKBP12 (Homo sapiens, UniProt P62942); experiment: In vitro PPIase assay
NIH3T3 cells = experiment: Centrosome amplification induced by Pin1 overexpression; format: cell-based; details: about 60% cells with multiple centrosomes without drug
From the text: (§1) FIG. 6 illustrates study results 600 in which ATRA may have anticancer activity in other cancer types. Breast cancer was used as model due to the substantial oncogenic role of Pin1 in vitro and in vivo. The first step was to test whether ATRA may reverse the oncogenic phenotypes induced by Pin1 overexpression, including induction of centrosome amplification, activation of the cyclin D1 promoter, and enhancement of foci formation.

[2] = system: Q33K or E100D Pin1 mutant in MDA-MB-231 cells; experiment: MDA-MB-231 cells stably expressing WT, Q33K or E100D Flag-Pin1 treated in vitro; format: cell-based, human
From the text: It was examined whether ATRA is suitable for treating tumors driven by cancer-derived monomeric Pin1 mutants given that it induces degradation of monomeric Pin1. It is stably expressed WT, Q33K or E100D Flag-Pin1 in MDA-MB-231 cells, and then treated them with ATRA. […] Collectively, ATRA has potent anti-tumor activity against breast cancer driven by WT Pin1 or its cancer-derived monomeric mutants via ablating Pin1.

NB4 cells = experiment: Cell growth of NB4 cells; format: cell-based, human; details: 1.5 μM ATRA compared with 10 μM ATRA
From the text: (K) Potentiated effects of ATRA with SIRT1 inhibitors, NAM or Splito, on cell growth of NB4.
Next, in a consideration to test the role of activated Pin1 monomer in APL, the anti-proliferative effect of ATRA in the presence of the SIRT1 inhibitors, NAM or Splito, to deplete the monomeric Pin1 reservoir was examined.

[3] = system: Pin1 and PML-RARα in the bone marrow; experiment: Pin1 and PML immunostaining of bone marrow of APL patients; format: in vivo, human APL patients
From the text: Bone marrow samples from APL patients before or after 3 or 10 days of ATRA treatment were immunostained with anti-Pin1 and anti-PML antibodies. […] Relative levels of Pin1 (P) in the nucleus and PML-RARα in the nuclear plasma outside of the PML nuclear body (Q) were semi-quantified (n=3).
A significant question is whether ATRA treatment leads to degradation of Pin1 and PML-RARα in APL patients. To address this question, Pin1 and PML-RARα protein levels and their localization in the bone marrow of APL patients using double immunostaining with antibodies against Pin1 and PML before or after the treatment with ATRA for 3 or 10 days, were detected.

[4] = cited from earlier work
human breast cell lines = experiment: Anti-proliferative effect on human normal and breast cancer cell lines; format: cell-based
Experimental: (F, G) Anti-proliferative effects of ATRA (F) and their correlation with Pin1 S71 phosphorylation (G) in various human normal and breast cancer cell lines.
To support the inhibitory effects of ATRA on human breast cancer cell growth, ATRA was tested against 9 different human breast cancer cell lines, ranging from immortalized normal cells to malignant ones. […] To address ATRA sensitivity among breast cell lines, Pin1 protein levels and post-translational modifications were analyzed. As compared with normal MCF10 and HMLE cells, Pin1 was over-expressed and its acetylation was reduced in all breast cancer cells (FIG. 6G).
(§2) The levels of S71 phosphorylation in different cell lines were tightly correlated with ATRA's sensitivity. […] It has been previously shown that phosphorylation on S71 forms salt bridges with K63 and R69, which are the same two residues that coordinated for the binding to the carboxylic acid group of ATRA (FIG. 6H). Thus S71 phosphorylation by DAPK1 may regulate ATRA's sensitivity of cancer cells.

MDA-MB-231 cells = experiment: Foci formation enhanced by Pin1; format: cell-based, human; details: dose-dependent
From the text: as §1

[5] = system: MDA-MB-231 cells stably expressing Flag-Pin1; experiment: Xenograft of MDA-MB-231 cells stably expressing Flag-Pin1; set-up: species or system nude mice; details: mouse, in vivo
From the text: (D, E) ATRA inhibited tumor growth of MDA-MB-231 cells in mice, even after Pin1 over-expression. MDA-MB-231 cells stably expressing Flag-Pin1 or control vector were inoculated into female nude mice followed by ATRA treatment. Tumors were collected 7 weeks post-treatment (D). Quantitative curves of tumor volume were plotted after calculation (E) (n=3).
To test whether the anti-tumor activity of ATRA against breast cancer is mediated by Pin1, it is stably expressed Flag-tagged Pin1 in MDA-MB-231 cells, followed by injection into nude mice. […] Thus anti-tumor activity of ATRA is mediated by ablating Pin1.

Pin1 = Pin1 (Homo sapiens, UniProt Q13526); experiment: In vitro PPIase assay; details: dose-dependent
Pin1, sequence (Q13526 whole entry): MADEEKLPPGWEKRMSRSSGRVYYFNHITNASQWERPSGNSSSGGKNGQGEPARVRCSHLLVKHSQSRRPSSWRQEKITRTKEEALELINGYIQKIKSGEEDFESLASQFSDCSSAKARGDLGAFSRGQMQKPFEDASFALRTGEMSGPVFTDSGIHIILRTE

[6] = system: APL cells isolated from hCG-PML-RARα transgenic mice
MRL/lpr lupus prone mice = experiment: MRL/lpr lupus prone mice; format: in vivo
Experimental: To test the effects of inhibiting Pin1 on lupus-related phenotypes in a mouse models, ATRA was used to treat six pairs of MRL/lpr mice at 8 weeks with the 5 mg ATRA or placebo for 8 weeks to examine whether ATRA would prevent the development of lupus-related phenotypes in this mouse model, which usually occur at 12 weeks. […] A pair of 14 week-old ATRA-treated and placebo-treated mice were sacrificed.

cyclophilin = experiment: In vitro PPIase assay
Pin1 S71E mutant = Pin1 S71E mutant (Homo sapiens, UniProt Q13526, S71E); experiment: Binding to phosphorylation-mimicking Pin1 S71E mutant
Pin1 S71E mutant, sequence (Q13526 whole entry S71E): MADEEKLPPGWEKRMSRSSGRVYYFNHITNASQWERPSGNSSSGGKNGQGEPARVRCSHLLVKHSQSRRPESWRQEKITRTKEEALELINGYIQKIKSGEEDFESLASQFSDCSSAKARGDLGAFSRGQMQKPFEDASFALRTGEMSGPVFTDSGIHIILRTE
From the text: As observed in FIGS. 4B and 4C, 13cRA and its pairing compound ATRA include a carboxylic acid and a hydrophobic six-membered aromatic ring.
as §2

FKBP12, sequence (P62942 whole entry, species assumed): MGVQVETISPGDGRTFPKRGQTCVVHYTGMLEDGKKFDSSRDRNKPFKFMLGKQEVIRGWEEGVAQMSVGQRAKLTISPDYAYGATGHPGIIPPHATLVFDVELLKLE

- inhibition of FKBP12 (FKBP12): inhibited neither
- inhibition of Pin1 PPIase activity (Pin1): completely inhibited
- inhibition of cyclophilin (cyclophilin): inhibited neither
- binding to Pin1 S71E mutant (Pin1 S71E mutant): prevented Pin1 from binding ATRA
Structure (SMILES): CC1=C(/C=C/C(C)=C/C=C/C(C)=C/C(=O)O)C(C)(C)CCC1 [ATRA, all-trans-retinoic acid]
- PML-RARα degradation [1]: induced PML-RARα degradation in a dose-dependent manner
- Pin1 degradation [1]: dose-dependently induced degradation
- Pin1 reduction ([1]; after 4 days of treatment): dramatic Pin1 reduction
- inhibition of Pin1 overexpression-induced multiple centrosomes (NIH3T3 cells): dose-dependently and completely inhibited
- inhibition of Q33K or E100D Pin1 mutant-enhanced foci formation in vitro [2]: dose-dependently and effectively inhibited
- degradation of monomeric Pin1 mutants ([2]; Q33K or E100D Flag-Pin1): effectively induced degradation of both monomeric Pin1 mutants in a dose-dependent manner
- growth inhibition (NB4 cells): less growth inhibition
- PML-RARα level remaining (nuclei excluding PML bodies) ([3]; after 3 day of treatment): about 40%
- Pin1 level remaining ([3]; after 3 day of treatment, over 100 APL cells quantified): about 40%
- PML-RARα level ([3]; after 10 days of treatment): little immunostaining signal outside of PML bodies
- Pin1 level remaining ([3]; after 10 days of treatment): < 10%
- half-life ([4]; humans and mammals, efficient first pass metabolism): approximately 45 minutes
- half-life ([4]; in humans): less than 1 h
- sensitivity class of cells (human breast cell lines; HMLE, MCF10A, AU565 and HCC1937 (S71 phosphorylated)): ATRA-resistant
- sensitivity class of cells (human breast cell lines; T47D and SKBR3 (low or no S71 phosphorylation)): ATRA-responsive
- susceptibility of cells to ATRA (human breast cell lines; immortalized non-transformed MCF10A and HMLE cells): highly resistant
- susceptibility of cells to ATRA (human breast cell lines; malignant breast cancer cells): different drug susceptibility
- inhibition of Pin1-enhanced foci formation (MDA-MB-231 cells): fully inhibited
- Pin1 and cyclin D1 in xenograft tumors [5]: dose-dependently reduced both endogenous and exogenous Pin1 and its target cyclin D1
- inhibition of tumor growth increased by Flag-Pin1 overexpression [5]: dose-dependently and effectively inhibited
- PML-RARα in the bone marrow ([6]; after 20 days): dramatically reduced
- Pin1 levels in the bone marrow ([6]; after 20 days): reduced Pin1 levels
- spleen weights ([6]; versus enlarged spleens in placebo group): remained nearly at basal levels
- visual lupus-related phenotypes (fur loss, skin inflammation, lymphoid hyperplasia) (MRL/lpr lupus prone mice; 5 mg ATRA for 8 weeks from 8 weeks of age): drastically suppressed visual lupus-related phenotypes in all six treated mice
- size of spleen and lymph node (MRL/lpr lupus prone mice; 14 week-old mouse, placebo 2-4 fold heavier): normal size
- glomerular deposition of IgG, C3, and CD68 (MRL/lpr lupus prone mice; mouse, in vivo): potently inhibited
- hyperkeratinosis (MRL/lpr lupus prone mice; mouse, in vivo): potently inhibited

Read-outs that look alike come from different tables or passages of the source.
